One assay concerns HSkMC. Kind of assay: cytotoxicity call (relative viability < 0.9). The following applies: 10 µM.
For a further assay, the system named is S. aureus RN4220. Kind of assay: growth inhibition call (relative growth <= 0.2). The settings on record: 50 µM.

Some of the results follow.

`CC(C)(C)[S@](=O)N1Cc2cc(C(=O)NCCN3CCCCC3)nc(-c3cccc(-c4ccc(C#N)cc4)c3)c2[C@@H]1CCO`: the cytotoxicity call with HSkMC is “inactive”. Further, in the assay on S. aureus RN4220, the growth inhibition call is “inactive”.

Turning to `COc1ccc(NC(=O)Nc2ccc3c(c2)C(=O)N([C@H](C)CO)C[C@H](C)[C@H](CN(C)C(=O)Nc2ccccc2)OCCCC[C@@H](C)O3)cc1`, the cytotoxicity call in the assay with HSkMC was “inactive”. Further, in the assay on S. aureus RN4220, the growth inhibition call is “inactive”.

With `C[C@@H]1CN([C@@H](C)CO)C(=O)Cc2cc(NC(=O)Nc3ccc4c(c3)OCO4)ccc2O[C@@H]1CN(C)Cc1ccc(-c2ccccc2)cc1`, the cytotoxicity call in the assay with HSkMC is “inactive”. In addition, the growth inhibition call in the assay on S. aureus RN4220 was “inactive”.

Consider `C[C@H]1CN([C@@H](C)CO)C(=O)c2cccc(NC(=O)c3ccc(-c4nccs4)cc3)c2O[C@H]1CN(C)C(=O)Nc1ccc(F)cc1`, for which the cytotoxicity call in the assay on HSkMC was “inactive”. Besides, the growth inhibition call in the assay on S. aureus RN4220 was “inactive”.

Take `COCC(=O)N(C)C[C@H]1Oc2cc(C#Cc3ccccc3)ccc2S(=O)(=O)N([C@H](C)CO)C[C@H]1C`: in the assay with HSkMC, the cytotoxicity call was “inactive”. Further, the growth inhibition call with S. aureus RN4220 was “inactive”.

On to `O=C(C[C@@H]1C=C[C@H](NS(=O)(=O)c2ccccc2F)[C@H](CO)O1)NCCCN1CCOCC1`, for which the cytotoxicity call in the assay with HSkMC was “inactive”. For the same compound, the growth inhibition call in the assay on S. aureus RN4220 was “inactive”.

`Cc1ccc(S(=O)(=O)Nc2ccc3c(c2)CC(=O)N([C@@H](C)CO)C[C@@H](C)[C@H](CN(C)Cc2ccc(-c4ccccc4)cc2)O3)cc1`: in the assay on HSkMC, the cytotoxicity call is “inactive”. For the same compound, the growth inhibition call with S. aureus RN4220 was “inactive”.

For `C[C@H](CO)N1C[C@H](C)[C@H](CN(C)S(C)(=O)=O)Oc2ccc(NC(=O)CCCCCC(=O)Nc3ccccc3N)cc2CC1=O`, the cytotoxicity call in the assay on HSkMC is “inactive”. Moreover, the growth inhibition call with S. aureus RN4220 is “inactive”.

For `C[C@H](CO)N1C[C@H](C)[C@H](CN(C)S(=O)(=O)c2ccc(F)cc2)Oc2ncc(Br)cc2C1=O`, in the assay with HSkMC, the cytotoxicity call is “inactive”. For the same compound, the growth inhibition call in the assay on S. aureus RN4220 is “inactive”.

In the case of `C[C@@H]1CN([C@@H](C)CO)C(=O)c2cc(NC(=O)NC3CCCCC3)ccc2O[C@H]1CN(C)Cc1ccc(Oc2ccccc2)cc1`, the cytotoxicity call in the assay on HSkMC is “active”. In addition, the growth inhibition call in the assay on S. aureus RN4220 is “inactive”.

As to `CCC(CC)C(=O)N1c2ccccc2Sc2ccccc21`, the cytotoxicity call in the assay with HSkMC is “inactive”. In addition, the growth inhibition call in the assay with S. aureus RN4220 is “inactive”.

As to `C[C@@H]1CCCCO[C@H](CN(C)S(C)(=O)=O)[C@@H](C)CN([C@@H](C)CO)C(=O)c2cc(NC(=O)Nc3ccc(C(F)(F)F)cc3)ccc2O1`, the cytotoxicity call in the assay with HSkMC was “inactive”. Moreover, in the assay with S. aureus RN4220, the growth inhibition call is “inactive”.

On to `O=C(C1=C[C@H](c2ccc(Br)cc2)C[C@H](OCc2ccc(CO)cc2)O1)N1CCN(Cc2ccccc2)CC1`, for which the cytotoxicity call in the assay with HSkMC is “inactive”. Moreover, the growth inhibition call in the assay on S. aureus RN4220 is “inactive”.

On to `C[C@H]1CN([C@@H](C)CO)C(=O)c2cc(NC(=O)Nc3ccccc3)ccc2O[C@H]1CN(C)Cc1ccc(C(=O)Nc2ccccc2N)cc1`, for which, in the assay on HSkMC, the cytotoxicity call is “inactive”. Further, the growth inhibition call in the assay on S. aureus RN4220 was “inactive”.

With `Cc1ccnc([C@@H](N)C2CC2)c1`, the cytotoxicity call with HSkMC was “inactive”. The growth inhibition call with S. aureus RN4220 is “inactive”.

With `C[C@H]1CN([C@@H](C)CO)C(=O)Cc2cc(NS(=O)(=O)c3ccccc3)ccc2O[C@H]1CN(C)S(=O)(=O)c1cn(C)cn1`, in the assay with HSkMC, the cytotoxicity call is “inactive”. Also, the growth inhibition call in the assay with S. aureus RN4220 was “inactive”.

Regarding `CC(C)NC(=O)Nc1ccc2c(c1)C(=O)N([C@H](C)CO)C[C@@H](C)[C@H](CN(C)S(=O)(=O)c1ccccc1)O2`, in the assay with HSkMC, the cytotoxicity call was “inactive”. The growth inhibition call in the assay with S. aureus RN4220 is “inactive”.

Regarding `COc1ccc2c3c(n(c2c1)C)[C@@H](CO)N(Cc1cc(cc(c1)OC)OC)C[C@]13CN(C1)S(=O)(=O)c1cn(cn1)C`, in the assay on HSkMC, the cytotoxicity call was “inactive”. For the same compound, in the assay on S. aureus RN4220, the growth inhibition call was “inactive”.

Consider `C[C@@H]1CN([C@@H](C)CO)C(=O)Cc2cc(NC(=O)C3CC3)ccc2O[C@H]1CN(C)C(=O)NC1CCCCC1`, for which the cytotoxicity call in the assay on HSkMC is “inactive”. The growth inhibition call in the assay with S. aureus RN4220 is “inactive”.

Regarding `CN1C(=O)c2cc(NC(=O)Cc3cccs3)ccc2OC[C@H]2O[C@@H](CC(=O)NCc3ccc(-c4ccccc4)cc3)CC[C@@H]21`, the cytotoxicity call in the assay on HSkMC was “inactive”. In addition, the growth inhibition call with S. aureus RN4220 was “inactive”.

`COc1ccc([Si](C)(C)[C@H]2[C@H](CCn3cc([C@H](O)c4ccccc4)nn3)O[C@@]3(C(=O)N(Cc4ccc(N5C(=O)c6cccc7cccc5c67)cc4)c4ccccc43)[C@@H]2C)cc1`: the cytotoxicity call in the assay with HSkMC was “inactive”. Besides, the growth inhibition call with S. aureus RN4220 was “inactive”.

Turning to `COc1ccc(S(=O)(=O)Nc2ccc3c(c2)C(=O)N([C@H](C)CO)C[C@H](C)[C@H](CN(C)Cc2ccc(Cl)c(Cl)c2)O3)cc1`, the cytotoxicity call in the assay with HSkMC is “inactive”. Also, the growth inhibition call in the assay with S. aureus RN4220 was “inactive”.

In the case of `C[C@H](CO)N1C[C@H](C)[C@@H](CN(C)S(=O)(=O)c2cn(C)cn2)OCCCC[C@H](C)Oc2ccc(NC(=O)CCCN(C)C)cc2C1=O`, in the assay with HSkMC, the cytotoxicity call was “inactive”. In addition, the growth inhibition call in the assay on S. aureus RN4220 was “inactive”.

Regarding `C[C@H](CO)N1C[C@H](C)[C@@H](CN(C)Cc2ccc(C(=O)O)cc2)Oc2ccc(NC(=O)c3ccncc3)cc2CC1=O`, the cytotoxicity call in the assay on HSkMC is “inactive”. The growth inhibition call in the assay on S. aureus RN4220 was “inactive”.

For the compound `C[C@@H]1CCCCO[C@@H](CN(C)Cc2ccc(C(F)(F)F)cc2)[C@H](C)CN([C@@H](C)CO)C(=O)c2cc(NC(=O)c3ccccc3)ccc2O1`, the cytotoxicity call in the assay with HSkMC is “inactive”. Moreover, the growth inhibition call in the assay with S. aureus RN4220 is “inactive”.

Take `COc1ccccc1S(=O)(=O)N[C@H]1C=C[C@H](CC(=O)N2CCN(C)CC2)O[C@H]1CO`: the cytotoxicity call in the assay on HSkMC was “inactive”. In the assay with S. aureus RN4220, the growth inhibition call is “inactive”.

On to `Cc1noc(C)c1NC(=O)N(C)C[C@H]1Oc2ccc(NS(C)(=O)=O)cc2C(=O)N([C@H](C)CO)C[C@H]1C`, for which the cytotoxicity call in the assay with HSkMC was “inactive”. Further, the growth inhibition call with S. aureus RN4220 was “inactive”.

With `CO[C@@H]1CN(C)C(=O)c2ccc(NS(C)(=O)=O)cc2OC[C@@H](C)N(C(=O)C2CCCCC2)C[C@H]1C`, the cytotoxicity call in the assay on HSkMC was “inactive”. Besides, in the assay with S. aureus RN4220, the growth inhibition call was “inactive”.

For the compound `O=C1O[C@H](c2ccccc2)[C@H](c2ccccc2)N2[C@H]1[C@@H](C(=O)N1CCN(c3ncccn3)CC1)[C@]1(C(=O)Nc3ccc(C#CC4(O)CCCCCC4)cc31)[C@H]2c1ccc(OCCO)cc1`, the cytotoxicity call in the assay with HSkMC was “inactive”. In addition, in the assay with S. aureus RN4220, the growth inhibition call is “inactive”.

In the case of `C[C@@H]1CN([C@@H](C)CO)C(=O)c2cccc(NS(=O)(=O)c3ccccc3)c2O[C@@H]1CN(C)S(=O)(=O)c1ccccc1`, the cytotoxicity call in the assay on HSkMC (human skeletal muscle cells) was “inactive”. Moreover, the growth inhibition call with S. aureus RN4220 was “inactive”.

Source of the values: the antibiotic and cytotoxicity screens of Wong et al. (2023).
